{"source": "patent US7517523B2", "about": "“Anti-MIF antibodies” (Cytokine PharmaSciences, Inc., priority 1993, dated 2009)", "molecules": {"B1": {"name": "IL-1β: recombinant murine IL-1β (protein, UniProt P10749 118-269, looked up)", "Interleukin-1 beta": "VPIRQLHYRLRDEQQKSLVLSDPYELKALHLNGQNINQQVIFSMSFVQGEPSNDKIPVALGLKGKNLYLSCVMKDGTPTLQLESVDPKQYPKKKMEKRFVFNKIEVKSKVEFESAEFPNWYISTSQAEHKPVFLGNNSGQDIIDFTMESVSS"}, "B2": {"name": "IL-6: recombinant murine IL-6 (protein, UniProt P08505 25-211, looked up)", "Interleukin-6": "FPTSQVRRGDFTEDTTPNRPVYTTSQVGGLITHVLWEIVEMRKELCNGNSDCMNNDDALAENNLKLPEIQRNDGCYQTGYNQEICLLKISSGLLEYHSYLEYMKNNLKDNKKDKARVLQRDTETLIHIFNQEVKDLHKIVLPTPISNALLTDKLESQKEWLRTKTIQFILKSLEEFLKVTLRSTRQT"}, "B3": {"name": "rhuMIF: recombinant human MIF (Jurkat T-cell cDNA) expressed in E. coli from pET11b (protein)", "chain": "PMFIVNTNVPRASVPDGFLSELTQQLAQATGKPPQYIAVHVVPDQLMAFGGSSEPCALCSLHSIGKIGGAQNRSYSKLLCGLLAERLRISPDRVYINYYDMNAANVGWNNSTFA"}}, "format_in_all_cases": "cell-based, mouse", "key": {"[1]": {"tested_on": "RAW 264.7 macrophages", "assay": "Steroid-induced MIF secretion by RAW 264.7 macrophages", "conditions": "for Range of Steroid Concentrations Inducing MIF in RAW 264.7 Macrophages: 12-15 h; for MIF secretion by murine macrophages after stimulation: RAW 264.7 macrophages and/or elicited peritoneal macrophages"}, "[2]": {"tested_on": "RAW 264.7 macrophages", "assay": "MIF secretion by RAW 264.7 macrophages stimulated with LPS or cytokines (Western blotting)", "conditions": "12 h; for MIF production: 1 or 10 ng/ml", "experimental": "After 3 h of incubation at 37° C. in a humidified atmosphere with 5% CO2, nonadherent cells were removed and wells were washed twice with RPMI/1% FBS. Cells then were incubated for 12 h with LPS (at concentrations ranging from 1 pg/ml to 1 μg/ml) or with cytokines (1 or 10 ng/ml for TNFα, IL-1β, and IL-6, and 10, 100 or 1000 IU/ml for IFNγ) diluted in RPMI/1% FBS. For time-course experiments, conditioned media of parallel cultures were removed at 3, 6, 9, 12 and 15 h intervals after LPS stimulation. […] Cells were incubated for 12 h either with LPS or with IFNγ plus LPS. When co-stimulated with IFNγ and LPS, cells were first incubated for an hour with IFNγ (100 IU/ml) before addition of LPS at the indicated concentrations. At the end of each experiment, cell-culture media were collected, centrifuged (10 min at 800 g), and supplemented with PMSF (1 mM). Supernatants then were concentrated 10-fold by membrane filtration (10 kD cut-off) (Centricon-10, Amicon, Beverly, N.Y.). Cellular RNA was extracted from adherent cells.\nFor Western blotting, samples were resolved on 18% SDS polyacrylamide gels under reducing conditions and transferred onto nitrocellulose membrane (Schleicher and Schuell, Keene, N.H.) at 50 V and 150 mA for 16 h. Membranes were blocked with 500 mM NaCl, 50 mM Tris-Base, pH 7.5 buffer containing 5% nonfat dry milk and 0.05% Tween-20 and incubated first with polyclonal rabbit anti-rMIF serum and then with horseradish peroxidase-conjugated igoat anti-rabbit IgG antibody (each diluted 1:1000 in 500 mM NaCl, 50 mM Tris-Base, pH 7.5 buffer with 1% BSA and 0.05% Tween-20). […] Incubations were for 1 h each. MIF was visualized by development with chloronaphthol/H2O2 or with TMB substrate. Serum MIF bands were quantified by laser densitometry (Shimadzu FDU-3, CS-9000U, Braintree, Mass.). Faint densitometric signals in the MIF region were detected in most sera prior to LPS administration (0 h). […] Each plotted point is the mean±SEM of individual sera from 2 to 5 animals."}, "[3]": {"tested_on": "RAW 264.7 macrophages", "assay": "MIF-induced secretion of TNFα by RAW 264.7 macrophages (L929 cell cytotoxicity)", "conditions": "12-14 h, difference to non-stimulated control, mean ± SEM", "experimental": "Cells were incubated for 12-14 hours with various doses of MIF diluted in RPMI/1% FBS. At the end of each experiment, cell culture media were collected, centrifuged (10 min at 800 g), and supplemented with 1 mM PMSF. MIF-induced TNFα activity was measured immediately afterwards.\nCells (4×10^6/well) were processed as described above and stimulated for 12 h with rMIF at specified concentrations ranging from 100 pg/ml to 1 μg/ml. At 1 μg/ml of rMIF, LPS contamination was 9 pg/ml as assessed by Limulus assay. To neutralize this minute amount of LPS, rMIF was preincubated for 1 h at 37° C. with polymyxin B (1 μg/ml). MIF-induced TNFα activity in cell-culture supernatant was quantitated by L929 cell cytotoxicity (Wolpe et al., 1988, J. Exp. Med. 167: 570)."}}, "data": [{"molecule": "C[C@@H]1C[C@H]2[C@@H]3CCC4=CC(=O)C=C[C@]4(C)[C@@]3(F)[C@@H](O)C[C@]2(C)[C@@]1(O)C(=O)CO", "note": "[Dexamethasone]", "values": [{"measurement": "Range of Steroid Concentrations Inducing MIF in RAW 264.7 Macrophages", "setting": "[1]", "value": "10^−8 to 10^−14 M"}]}, {"molecule": "CC(=O)[C@H]1CC[C@H]2[C@@H]3CCC4=CC(=O)CC[C@]4(C)[C@H]3CC[C@]12C", "note": "[Progesterone]", "values": [{"measurement": "Range of Steroid Concentrations Inducing MIF in RAW 264.7 Macrophages", "setting": "[1]", "value": "10^−4 to 10^−12 M"}, {"measurement": "MIF secretion by murine macrophages after stimulation", "setting": "[1]", "value": "secreted"}]}, {"molecule": "C[C@]12CC[C@@H](O)C[C@H]1CC[C@@H]1[C@@H]2[C@@H](O)C[C@@]2(C)[C@H]1CC[C@]2(O)C(=O)CO", "note": "[5β-Pregnane-3α,11β,17α,21-tetrol-20-one]", "values": [{"measurement": "Range of Steroid Concentrations Inducing MIF in RAW 264.7 Macrophages", "setting": "[1]", "value": "10^−8 to 10^−14 M"}, {"measurement": "MIF secretion by murine macrophages after stimulation", "setting": "[1]", "value": "secreted"}]}, {"molecule": "C[C@]12CCC(=O)C=C1CC[C@@H]1[C@@H]2[C@@H](O)C[C@@]2(C)[C@H]1CC[C@]2(O)[C@@H](O)CO", "note": "[4-pregnene-11β,17α,20α,21-tetrol-3-one]", "values": [{"measurement": "Range of Steroid Concentrations Inducing MIF in RAW 264.7 Macrophages", "setting": "[1]", "value": "10^−10 to 10^−14 M"}, {"measurement": "MIF secretion by murine macrophages after stimulation", "setting": "[1]", "value": "secreted"}]}, {"molecule": "C[C@]12CC[C@H]3[C@@H](CCC4=CC(=O)CC[C@@]43C)[C@@H]1CC[C@@H]2O", "note": "[Testosterone]", "values": [{"measurement": "Range of Steroid Concentrations Inducing MIF in RAW 264.7 Macrophages", "setting": "[1]", "value": "10^−6 to 10^−14 M"}, {"measurement": "MIF secretion by murine macrophages after stimulation", "setting": "[1]", "value": "secreted"}]}, {"molecule": "IFNγ: recombinant murine IFNγ", "values": [{"measurement": "Lowest concentration effective in inducing MIF secretion", "setting": "[2]", "value": 10, "unit": "IU/ml"}]}, {"molecule": "CC#C[C@]1(O)CC[C@H]2[C@@H]3CCC4=CC(=O)CCC4=C3[C@@H](c3ccc(N(C)C)cc3)C[C@@]21C", "note": "[RU-38486 (mifepristone), mifepristone]", "values": [{"measurement": "Range of Steroid Concentrations Inducing MIF in RAW 264.7 Macrophages", "setting": "[1]", "value": "10^−8 to 10^−14 M"}, {"measurement": "MIF secretion by murine macrophages after stimulation", "setting": "[1]", "value": "secreted"}]}, {"molecule": "TNFα: recombinant murine TNFα", "values": [{"measurement": "Lowest concentration effective in inducing MIF secretion", "setting": "[2]", "value": 1, "unit": "ng/mL"}]}, {"molecule": "C[C@]12CCC(=O)C=C1CC[C@@H]1[C@@H]2[C@@H](O)C[C@@]2(C)[C@H]1CC[C@]2(O)C(=O)CO", "note": "[Hydrocortisone]", "values": [{"measurement": "Range of Steroid Concentrations Inducing MIF in RAW 264.7 Macrophages", "setting": "[1]", "value": "10^−8 to 10^−12 M"}, {"measurement": "MIF secretion by murine macrophages after stimulation", "setting": "[1]", "value": "secreted"}]}, {"molecule": "C[C@]12CCC(=O)C=C1CC[C@@H]1[C@@H]2[C@@H](O)C[C@]2(C=O)[C@@H](C(=O)CO)CC[C@@H]12", "note": "[Aldosterone]", "values": [{"measurement": "Range of Steroid Concentrations Inducing MIF in RAW 264.7 Macrophages", "setting": "[1]", "value": "10^−10 to 10^−14 M"}, {"measurement": "MIF secretion by murine macrophages after stimulation", "setting": "[1]", "value": "secreted"}]}, {"molecule": "B1", "values": [{"measurement": "MIF production", "setting": "[2]", "value": "not induced"}]}, {"molecule": "B2", "values": [{"measurement": "MIF production", "setting": "[2]", "value": "not induced"}]}, {"molecule": "B3", "values": [{"measurement": "Secretion of TNFα induced by MIF", "setting": "[3]; MIF 0.1 μg/ml", "value": "2.9 ± 2.4", "unit": "ng/mL"}, {"measurement": "Secretion of TNFα induced by MIF", "setting": "[3]; MIF 1 μg/ml", "value": "3.4 ± 2.8", "unit": "ng/mL"}, {"measurement": "Secretion of TNFα induced by MIF", "setting": "[3]; MIF 10 μg/ml", "value": "3.9 ± 2.8", "unit": "ng/mL"}]}]}
